# Measurements reported in the supplement of paper PMC8728848.
# This is one part of the list.
# B1: PX14343A-bvu-539-29-539 (Bacteroides vulgatus) (protein)
# chain: DSLTESSSNTFWQTPDDALMALASCYDALQSNQLYNSDQYSLGPLYMDCISDNGGHFNWSGWMEGYDMAMGIHTPSSSIIGSYWKDCYEVISRCNVLIANIDRVDMDASQKAIYQAEAKTIRALMYINLTMTYQDVPFLTAPLTIDEAECEKTDRAAIVAHVMTDLQDAAEVLPQNASSRGHITKGAALSLLGRVALYNEKWDDAIAAYKQVQGLGYSLDPSYAKLFTQSGETSPEIIFAVRYEGPGMSEGAAFNAHWNTPLEAMNGTIDLADAYYCKDGKPTTDTKIAELNGGGGLDVSKPNPAHFENRDPRLYSTLFVPGMLWNGKGGIDTSASNPYANVYGGAAASLSTVYVYKYFDPTDTSNSWDNGQDFYVVRYAEVLLSLAEAMVQKGGYVYSDVTALVNEVRQRADVNMPTVEEVEGTSLSKDELLEVIKHERRVELAFEGLRLFDLYRWKELDKAVANIENERTMYGLAYEARKFNGERDYVWPLPTAELDTNKKLVQHDLWK
# What was measured:
# Assay in all cases: glycan array binding signal (z-score within array); higher = stronger binding
# Details in all cases: glycan notation: IUPAC condensed, linker removed
# [1] = biological target: Gal(b1-4)GlcNAc(b1-3)Gal(b1-4)GlcNAc(b1-6)[Gal(b1-3)]GalNAc
# Procedure, shortened: (§1)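 Glycan array binding is given as a within-array Z-score, which can be read as non-binding when negative. The arrays, 3228 of them, came from the Consortium for Functional Glycomics database and were retained only where the protein sequence was available. Z-scores were averaged across arrays of the same protein sequence at different concentrations or buffers and across linkers.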
# [2] = biological target: Gal(b1-4)GlcNAc(b1-3)Gal(b1-4)[Fuc(a1-3)]GlcNAc(b1-3)Gal(b1-4)[Fuc(a1-3)]GlcNAc
# Procedure, shortened: as §1
# [3] = biological target: Gal(b1-4)GlcNAc(b1-3)GalNAc
# Procedure, shortened: as §1
# [4] = biological target: Gal(b1-4)GlcNAc(b1-3)[Fuc(a1-3)GlcNAc(b1-6)]Gal(b1-4)Glc
# Procedure, shortened: as §1
# [5] = biological target: Gal(b1-4)GlcNAc(b1-3)[Gal(b1-4)GlcNAc(b1-6)]Gal(b1-4)GlcNAc
# Procedure, shortened: as §1
# [6] = biological target: Gal(b1-4)GlcNAc(b1-3)[GlcNAc(b1-6)]Gal(b1-4)GlcNAc
# Procedure, shortened: as §1
# [7] = biological target: Gal(b1-4)GlcNAc(b1-6)Gal(b1-4)GlcNAc
# Procedure, shortened: as §1
# [8] = biological target: Gal(b1-4)GlcNAc(b1-6)GalNAc
# Procedure, shortened: as §1
# [9] = biological target: Gal(b1-4)GlcNAc(b1-6)[Gal(b1-3)]GalNAc
# Procedure, shortened: as §1
# [10] = biological target: Gal(b1-4)GlcNAc(b1-6)[Gal(b1-4)GlcNAc(b1-3)]GalNAc
# Procedure, shortened: as §1
# Gal(b1-4)GlcNAc6P = biological target: Gal(b1-4)GlcNAc6P
# Procedure, shortened: as §1
# Gal(b1-6)Gal = biological target: Gal(b1-6)Gal
# Procedure, shortened: as §1
# Gal3S(b1-3)GalNAc = biological target: Gal3S(b1-3)GalNAc
# Procedure, shortened: as §1
# Gal3S(b1-3)GlcNAc = biological target: Gal3S(b1-3)GlcNAc
# Procedure, shortened: as §1
# [11] = biological target: Gal3S(b1-3)[Fuc(a1-4)]GlcNAc
# Procedure, shortened: as §1
# Gal3S(b1-4)Glc = biological target: Gal3S(b1-4)Glc
# Procedure, shortened: as §1
# Gal3S(b1-4)Glc6S = biological target: Gal3S(b1-4)Glc6S
# Procedure, shortened: as §1
# Gal3S(b1-4)GlcNAc = biological target: Gal3S(b1-4)GlcNAc
# Procedure, shortened: as §1
# [12] = biological target: Gal3S(b1-4)[Fuc(a1-3)]Glc6S
# Procedure, shortened: as §1
# [13] = biological target: Gal3S(b1-4)[Fuc(a1-3)]GlcNAc
# Procedure, shortened: as §1
# [14] = biological target: Gal3S(b1-4)[Fuc(a1-3)]GlcNAc6S
# Procedure, shortened: as §1
# Gal3S4S(b1-4)GlcNAc = biological target: Gal3S4S(b1-4)GlcNAc
# Procedure, shortened: as §1
# Gal3S6S(b1-4)GlcNAc = biological target: Gal3S6S(b1-4)GlcNAc
# Procedure, shortened: as §1
# Gal3S6S(b1-4)GlcNAc6S = biological target: Gal3S6S(b1-4)GlcNAc6S
# Procedure, shortened: as §1
# Gal4S(b1-4)GlcNAc = biological target: Gal4S(b1-4)GlcNAc
# Procedure, shortened: as §1
# Gal4S6S(b1-4)GlcNAc = biological target: Gal4S6S(b1-4)GlcNAc
# Procedure, shortened: as §1
# Gal6P(b1-4)GlcNAc = biological target: Gal6P(b1-4)GlcNAc
# Procedure, shortened: as §1
# Gal6S(b1-3)GlcNAc = biological target: Gal6S(b1-3)GlcNAc
# Procedure, shortened: as §1
# Gal6S(b1-3)GlcNAc6S = biological target: Gal6S(b1-3)GlcNAc6S
# Procedure, shortened: as §1
# Gal6S(b1-4)Glc = biological target: Gal6S(b1-4)Glc
# Procedure, shortened: as §1
# Gal6S(b1-4)Glc6S = biological target: Gal6S(b1-4)Glc6S
# Procedure, shortened: as §1
# Gal6S(b1-4)GlcNAc = biological target: Gal6S(b1-4)GlcNAc
# Procedure, shortened: as §1
# Gal6S(b1-4)GlcNAc6S = biological target: Gal6S(b1-4)GlcNAc6S
# Procedure, shortened: as §1
# GalNAc(a1-3)Gal = biological target: GalNAc(a1-3)Gal
# Procedure, shortened: as §1
# GalNAc(a1-3)GalNAc = biological target: GalNAc(a1-3)GalNAc
# Procedure, shortened: as §1
# [15] = biological target: GalNAc(a1-3)GalNAc(b1-3)Gal(a1-4)Gal(b1-4)Glc
# Procedure, shortened: as §1
# [16] = biological target: GalNAc(a1-3)GalNAc(b1-3)Gal(a1-4)Gal(b1-4)GlcNAc
# Procedure, shortened: as §1
binder,measurement,setting,value
B1,glycan array binding signal (z-score),[1],0.032
same,glycan array binding signal (z-score),[2],0.322
same,glycan array binding signal (z-score),[3],-0.392
same,glycan array binding signal (z-score),[4],-0.334
same,glycan array binding signal (z-score),[5],-0.223
same,glycan array binding signal (z-score),[6],-0.381
same,glycan array binding signal (z-score),[7],-0.311
same,glycan array binding signal (z-score),[8],-0.291
same,glycan array binding signal (z-score),[9],-0.318
same,glycan array binding signal (z-score),[10],-0.235
same,glycan array binding signal (z-score),Gal(b1-4)GlcNAc6P,-0.242
same,glycan array binding signal (z-score),Gal(b1-6)Gal,-0.125
same,glycan array binding signal (z-score),Gal3S(b1-3)GalNAc,-0.06
same,glycan array binding signal (z-score),Gal3S(b1-3)GlcNAc,-0.038
same,glycan array binding signal (z-score),[11],-0.171
same,glycan array binding signal (z-score),Gal3S(b1-4)Glc,0.037
same,glycan array binding signal (z-score),Gal3S(b1-4)Glc6S,-0.101
same,glycan array binding signal (z-score),Gal3S(b1-4)GlcNAc,-0.098
same,glycan array binding signal (z-score),[12],-0.051
same,glycan array binding signal (z-score),[13],-0.121
same,glycan array binding signal (z-score),[14],-0.102
same,glycan array binding signal (z-score),Gal3S4S(b1-4)GlcNAc,-0.103
same,glycan array binding signal (z-score),Gal3S6S(b1-4)GlcNAc,-0.045
same,glycan array binding signal (z-score),Gal3S6S(b1-4)GlcNAc6S,0.278
same,glycan array binding signal (z-score),Gal4S(b1-4)GlcNAc,-0.12
same,glycan array binding signal (z-score),Gal4S6S(b1-4)GlcNAc,-0.247
same,glycan array binding signal (z-score),Gal6P(b1-4)GlcNAc,-0.055
same,glycan array binding signal (z-score),Gal6S(b1-3)GlcNAc,-0.016
same,glycan array binding signal (z-score),Gal6S(b1-3)GlcNAc6S,0.74
same,glycan array binding signal (z-score),Gal6S(b1-4)Glc,-0.179
same,glycan array binding signal (z-score),Gal6S(b1-4)Glc6S,0.222
same,glycan array binding signal (z-score),Gal6S(b1-4)GlcNAc,-0.071
same,glycan array binding signal (z-score),Gal6S(b1-4)GlcNAc6S,-0.124
same,glycan array binding signal (z-score),GalNAc(a1-3)Gal,0.27
same,glycan array binding signal (z-score),GalNAc(a1-3)GalNAc,-0.355
same,glycan array binding signal (z-score),[15],-0.177
same,glycan array binding signal (z-score),[16],-0.196
